From the antibiotic and cytotoxicity screens of Wong et al. (2023)
Some of the results follow.

Tests used:
[1] = tested on: HSkMC (human skeletal muscle cells); test: cytotoxicity call (relative viability < 0.9); details: 10 µM
[2] = tested on: HepG2; test: cytotoxicity call (relative viability < 0.9); details: 10 µM
[3] = tested on: S. aureus RN4220; test: growth inhibition call (relative growth <= 0.2); details: 50 µM

| SMILES | cytotoxicity call [1] | cytotoxicity call [2] | growth inhibition call [3] |
| --- | --- | --- | --- |
| C=C(C)[C@@H]1CCC(C)=C[C@H]1c1c(OC)cc(C)cc1OC | inactive | inactive | inactive |
| Cc1ccc(-c2nc3ccc(C)cn3c2CC(=O)N(C)C)cc1 | inactive | inactive | inactive |
| CN(C)C(=O)[C@@]1(Cc2ccccc2N=[N+]=[N-])N=C(c2ccc(OCCCO)cc2)O[C@H]1c1ccccc1N=[N+]=[N-] | inactive | inactive | inactive |
| Cc1nc(N2CCN(C)CC2)ccc1N | inactive | inactive | inactive |
| COc1ccc(OC(=O)N(C)C[C@@H]2OCc3ccccc3-c3c(n(C)c4ccccc34)C(=O)N([C@H](C)CO)C[C@H]2C)cc1 | active | inactive | inactive |
| C/C=C(/C)C(=O)O[C@H]1CC[C@@]2(C)[C@@H]3CC[C@H]4[C@]5(O)C[C@H](O)[C@@]6(O)[C@@H](CN7C[C@@H](C)CC[C@H]7[C@@]6(C)O)[C@]5(O)C[C@@]42O[C@@]13O | inactive | inactive | inactive |
| Cc1cc(OC(=O)N(C)C)cc(=O)n1C | inactive | inactive | inactive |
| C[C@H]1CN([C@@H](C)CO)C(=O)CCCn2cc(nn2)CO[C@H]1CN(C)C(=O)Oc1ccc2ccccc2c1 | inactive | inactive | inactive |
| C[C@H]1CN([C@@H](C)CO)C(=O)c2c(c3ccccc3n2C)-c2ccccc2CO[C@@H]1CN(C)C(=O)Oc1ccccc1 | inactive | inactive | inactive |
| COc1cc([C@@H](O)CN)ccc1O | inactive | inactive | inactive |
| CC(CCc1ccccc1)NC(C)C(O)c1ccc(O)cc1.Cl (centres undefined) | inactive | inactive | inactive |
| NCCc1ccc([N+](=O)[O-])cc1 | inactive | inactive | inactive |
| O=C1C[C@@H](c2ccncc2)C2(CCNCC2)N1 | inactive | inactive | inactive |
| CN(C)C(=O)CN1C[C@H]2CON[C@@H]2C1 | inactive | inactive | inactive |
| CC(C)[C@@H]1NC[C@@H]2CCCN2C1=O | inactive | inactive | inactive |
| CC(=O)OC1CC2(C)C(c3ccoc3)CC3OC32C2(C)C(=O)C(O)=C3C(C)(C)C(=O)C=CC3(C)C12 (centres undefined) | active | active | inactive |
| CC(O)CN1CCN(CC(=O)[O-])CCN(CC(=O)[O-])CCN(CC(=O)[O-])CC1.[Gd+3] (centres undefined) | inactive | inactive | inactive |

| SMILES | cytotoxicity call [1] | cytotoxicity call [2] | growth inhibition call [3] |
| --- | --- | --- | --- |
| O=C(O)C=CCO | inactive | inactive | inactive |
| CN1CCc2cc3c(cc2[C@@H]1O)OCO3 | inactive | inactive | inactive |
| C[C@H](O)[C@@]12[C@H]3CC=C[C@@H]1N2CC3 (some centres undefined) | inactive | inactive | inactive |
| Cl.Clc1ccc(C(OCCN2CCCCC2)c2ccccc2)cc1 (centres undefined) | inactive | active | inactive |
| C=C(CCCCCCCCCCCCCCCC)OOC[C@@H](COP(=O)(ON)O[C@@H]1[C@H](O)[C@H](O)[C@@H](OP(=O)(O)ON)[C@H](OP(=O)(O)ON)[C@H]1O)OOC(=C)CC/C=C/C/C=C/C/C=C/C/C=C/CCCCC (some centres undefined) | inactive | active | inactive |
| CCCCS(=O)(=O)N1C[C@H]2CNC[C@@H]2C1 | inactive | inactive | inactive |
| N#C[C@@]12[C@H]3CC=C[C@@H]1N2CC3 (some centres undefined) | inactive | inactive | inactive |
| Nc1ccncc1 | inactive | inactive | inactive |
| O=c1n(Cl)c(=O)n(Cl)c(=O)n1Cl | inactive | inactive | inactive |
| CCN1C[C@]2(OC(=O)c3ccccc3NC(C)=O)CC[C@@H](OC)[C@@]34[C@H]5C[C@@H]6[C@@H](OC)C[C@](O)([C@@H](C[C@@H]23)[C@@H]14)[C@]5(O)[C@H]6OC | inactive | inactive | inactive |
| [N-]=[N+]=NCC(=O)N1CCOCC1 | inactive | inactive | inactive |
| CCCCC1C(=O)NC(=S)NC1=O | inactive | inactive | inactive |
| N#CC(c1ccccc1)c1ccccc1 | inactive | inactive | inactive |
| CC(C)CC1C(=O)N2CCCC2C2(O)OC(NC(=O)C3C=C4c5cccc6[nH]c(Br)c(c56)CC4N(C)C3)(C(C)C)C(=O)N12.CS(=O)(=O)O (centres undefined) | inactive | inactive | inactive |
| CC1=C2CC3C(CC=C4CC(O)CCC43C)C2CCC12OC1CC(C)CNC1C2C (centres undefined) | inactive | inactive | inactive |
| CO[C@H]1[C@@H](O)[C@@H](O[C@H]2CC[C@]3(C=O)[C@@H]4[C@@H](CC[C@]3(O)C2)[C@@]2(O)CC[C@H](C3=CC(=O)OC3)[C@@]2(C)C[C@H]4OC(C)=O)O[C@@H](C)[C@@H]1OC(C)=O | inactive | inactive | inactive |
